The results in this text go back to PubChem BioAssay (NCI).

Each structure is given as a SMILES string. The source holds several records for some structures; these can differ, active in one and inactive in another.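 Treatment: one concentration, 48 hours, 96-well format. Scoring: percent growth, with anything below 10 considered active.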 For part of its entries the source gives two or more results. They are shown here; other results are not. There may be further records. These are repeated runs of one drug, at its own concentration, as given; each value is one run. Counts like (3×) count equal records among those shown.

Experiment [1] relates to RPMI-8226 leukemia. Briefly: NCI-60 one-dose screen, 48 h (100 = growth as untreated, 0 = no growth, -100 = all killed). The following applies: 2.5 mM.
Experiment [2] has as its system OVCAR-8 ovarian. The experiment is described as above. The following applies: 2.5 mM.

Take `O=c1[nH]cc(F)c(=O)[nH]1`: the growth result in experiment [1] (runs of 1992) was “inactive: 27.1, 18.2, 20.1, 13.4 (2×), 50.2, 22.2, 17.8, 14.9 (3×), 21.2, 34.6, 28.7, 66.9, 20.5 (3×), 15.4, 19.9, 10.2, 19.1 (2×), 14.2, 15.9, 12, 12.7, 25.4, 26.1, 36.6, 10.1 (3×), 17.3, 26.9, 28.1, 13.8, 68.2, 21.9, 47.1, 20.8 (2×), 10.8, 22.5 (2×), 14.6 (4×), 21.4, 37.1, 17.6, 29.7, 10.3, 17.9 (2×), 17 (2×), 49.7, 30.2, 11.2, 20, 16.2 (2×), 33.6, 24.4, 11.5, 15.7, 14.8, 21.3, 19.6, 40.5, 27.7, 12.2, 16.4, 12.6, 57.6, 12.8, 20.6, 16.1, 10.6, 27.9, 18% and active: 8.77, 8.04, 6.69, 9.93, -7.59, 4.66, -0.254, 4.09, 0.12, -40.2, 9.6, 9.87, -31, -38.4, -16.1, 7.93, 8.67, 5.22, 5.82, 6.27, 2.83, 5.65, 8.87, 8.29, 3.68, 8.51, -1.66, -16.2, 5.76, 6.57, 4.58, 9.05, 5.77, 8.71%”; in experiment [1] (runs of 1993) it was “inactive: 12.5 (2×), 22.5, 53.4, 11.4, 16.6, 15, 24.6, 14.7, 29.5, 12.2, 14.9 (2×), 34.6, 13.4 (2×), 12.8, 11.6 (2×), 18.9, 37.2, 23.3, 10.9, 11.7, 47.1, 19.8, 11.1, 114, 55.9, 36.2, 12.4, 11.3, 14, 24.1% and active: 4.14, 3.6, 3.02, -22.3, -5.85, 1.75, 7.96, 4.53, -15.6, 5.8, 4.13, 8.57%”; in experiment [1] (runs of 1994), “inactive: 25.5, 17.8, 12.7, 47.4, 39.1, 16.1, 22.1, 19.6 (2×), 26.6, 35.9, 16.6, 12.9, 10.5, 16.5, 29.8, 27, 34.1, 16.2% and active: 8.57, 8.29, 5.65, 6.13, 9.98, 6.55, 6.89, 7.82, -4.4, -30.3, -0.348, -6.23%”; in experiment [1] (runs of 1995), “inactive: 14.6, 21.2, 34.5, 26.7, 19.1, 14.7, 46.5, 13.6, 12.1, 35.2, 23.2, 42.4, 15.3, 18.5, 18.6% and active: 4.19, 6.76, -2.83, -35.5, -17.1, 0.876, -8.03, 0.101, 1.52, 7.3, 9.08, -17.6, -7.78, -18.8, 9.39, 4.28, 6.33, -7.97, -15.7%”; in experiment [1] (runs of 1996), “inactive: 11.5 (2×), 46.1, 25.9, 18.6, 10.3, 45.7, 10.4, 10.9, 17.5, 28.7, 26.2, 21.7, 19.6, 24.4, 34.8% and active: -16.6, -13.1, -8.75, -26.9, 4.4, -18.5, 0.721, -12.2, 8.86, -10.3, 6.93, 5.04, 5.5, -60.1, -16, -38.6, -6.45, -23.4, -14, -9.47, 4.21 (2×), 8.27, 0.46, -4.97, 5.73, -23.6, 7.59, 6.75%”; in experiment [1] (runs of 1997) it was “active: 5.21, 2.11, 4.81, 8.08, 3.28, -21.6, -28.3, -15.5, 4.55, -31.7, 7.69, 0.354, -0.75, 7.11, -5.17, -3.43, 3.5, -4.89, -10.6, -75.8, -3.7% and inactive: 78.2, 21.1, 10.6, 13.3, 15.4 (2×), 17.9 (2×), 15.2, 33.1, 30.8, 25.3, 10.7, 44, 11.6, 16, 14.1, 67.2, 22.7, 10.9%”. Besides, the growth result in experiment [1] (runs of 1998) was “inactive: 21.2, 16.7, 36.2, 13.7, 16.2, 19.7, 22.5, 11.4, 15.2, 41.4% and active: 3.21, -19, -0.939, -11.4, 3.95, 2.94, 9.48%”; in experiment [1] (runs of 1999) it was “inactive: 41.2%, 104% and active: 4.37, 1.36, -65.4, -53.4, -20.8, -82.6, -42.6, 0.721, 3.76, 5.92, 4.95, 3.96%”; in experiment [1] (runs of 2000), “active: -5.6%, -18.4% and inactive: 14.1% (2×)”; in experiment [2] (runs of 1991), “inactive: 17.8, 20.2 (2×), 17.6, 18.2, 19.3, 24.2, 25.9, 46.8, 20, 16.7, 15.5, 17.1, 27.6, 10.7, 16.8, 33.4, 30.2, 19.7% and active: -27.3%”; in experiment [2] (runs of 1992), “inactive: 17.8, 11.7, 21, 83.9, 33.1 (2×), 28, 28.4 (3×), 16.7, 22.8, 14.4, 10.3, 29.1, 23.6, 33.6 (2×), 24.7, 24.5, 42.4, 22.9, 16.2, 22.2, 52.3, 32.9, 30.7, 11, 27.3 (3×), 21.4, 26.1, 38.9, 44.5, 36.7 (2×), 31, 42.6, 33.2, 18.6, 19.2, 23.3, 28.8, 24, 20.7, 25.8 (2×), 20.5, 13, 31.4, 30.2, 28.1 (3×), 30.5, 25.9 (2×), 24.9 (2×), 22.7, 20, 29.7, 20.6, 93.9, 34.2, 38.6, 18.7, 34.4, 30.1, 24.8, 35, 38.2, 19.5, 29.6 (2×), 18.3, 31.1, 29.4, 21.8, 28.9, 26.7 (2×), 26.4, 21.2, 18, 17.1, 36.4, 39.3, 30.3, 38, 42.9, 34.5, 27.2, 12.5, 17.9, 19.4, 47, 14.2, 27.8, 24.1, 25.3, 13.3, 26, 29.9, 32.7, 14.5, 32.1, 27, 35.5, 28.7, 16.1, 28.6, 12.1, 37.2, 21.7% and active: 9.65, 6.39, 5.35, 0.217, -62.5%”; in experiment [2] (runs of 1993) it was “inactive: 14.4, 20.9, 31.6, 29.4, 28, 23.5, 23.9, 30.8, 29.1, 32.6, 25.2, 27.6 (2×), 25.5, 14.1, 29.9, 31.5, 18.3, 28.6, 31.3 (2×), 22.5, 16.9, 24.1, 39.3, 31, 34.3, 28.2 (2×), 20.2 (3×), 20.3, 24.8, 27.8, 15.3 (2×), 77.2, 16.7, 66.8, 20, 12.6, 41, 26.3, 27.3, 26.1% and active: -16.2%”. The growth result was “inactive: 28.9, 22.4, 20.1, 26, 13, 27.6, 15.7, 25.3 (2×), 26.3, 15.8, 34.3, 15.3, 22.6, 42.4, 14.7, 17.6, 29.2, 24.4, 24.2, 30.6, 22.7, 27.2, 18.7, 25.4, 35.4, 24.7, 31.5, 16.8, 38% and active: 1.2, 9.15, 8.29, 6.51%” in experiment [2] (runs of 1994); “inactive: 35.7, 30.8, 18.5, 18.2, 23.1, 26.5 (2×), 28.1, 29.7 (2×), 25, 15.6, 36.6, 12.2, 21.3, 41.1, 28.6, 22.7, 31.3, 30.3, 19.4, 21.5, 22, 26.3, 32, 52.5, 38.3, 33.7, 35.4, 18.9, 36.2, 28.3, 27.9, 21.9, 17.2, 17.7, 34.5% and active: -1.59%” in experiment [2] (runs of 1995); “inactive: 28.8, 22.8, 22.4, 35.3, 35.1, 26.6 (2×), 24.4 (2×), 30.1, 21.9, 16.2, 24.9, 37.2, 30.2, 34.2, 33.1, 33, 40.8, 18.3, 28.9, 34, 27.1, 34.9, 36.7, 20.1 (2×), 29.9 (2×), 27.3, 21.4, 28, 31, 29.2, 21, 25.2, 32.8, 37.9, 31.3, 41, 37.4, 24.3, 21.2, 21.3, 16.5, 34.8, 43.4, 38.2, 24.5, 35.6, 24.1, 36.5, 29% and active: 6.82, -24.2, 5.92, 9.57, 5.85, 6.1%” in experiment [2] (runs of 1996).
